Test results taken from the supplement of paper PMC8728848.
Some of the results follow.

Legend:
Test in all cases: glycan array binding signal (z-score within array); higher = stronger binding
Settings in all cases: glycan notation: IUPAC condensed, linker removed
[1] = target: GlcNAc(b1-3)Gal(b1-4)GlcNAc(b1-3)Gal(b1-4)GlcNAc(b1-3)Gal(b1-4)GlcNAc(b1-3)Gal(b1-4)GlcNAc(b1-2)[GlcNAc(b1-3)Gal(b1-4)GlcNAc(b1-3)Gal(b1-4)GlcNAc(b1-3)Gal(b1-4)GlcNAc(b1-3)Gal(b1-4)GlcNAc(b1-6)]Man(a1-6)[GlcNAc(b1-3)Gal(b1-4)GlcNAc(b1-3)Gal(b1-4)GlcNAc(b1-3)Gal(b1-4)GlcNAc(b1-3)Gal(b1-4)GlcNAc(b1-2)Man(a1-3)]Man(b1-4)GlcNAc(b1-4)[Fuc(a1-6)]GlcNAc
In short: (§1)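 Negative Z-scores can be read as non-binding. The Z-score is calculated within each array and then averaged across arrays of one protein sequence at different concentrations or buffers and across linkers. Arrays, 3228 in all, were curated from the Consortium for Functional Glycomics database and kept only where the protein sequence was available.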

[2] = target: GlcNAc(b1-3)Gal(b1-4)GlcNAc(b1-3)Gal(b1-4)GlcNAc(b1-3)GalNAc
In short: as §1

[3] = target: GlcNAc(b1-3)Gal(b1-4)GlcNAc(b1-3)GalNAc
In short: as §1

[4] = target: GlcNAc(b1-3)Gal(b1-4)GlcNAc(b1-3)[GlcNAc(b1-3)Gal(b1-4)GlcNAc(b1-3)]GalNAc
In short: as §1

[5] = target: GlcNAc(b1-3)Gal(b1-4)GlcNAc(b1-6)[Gal(b1-3)]GalNAc
In short: as §1

[6] = target: GlcNAc(b1-3)Gal(b1-4)GlcNAc(b1-6)[GlcNAc(b1-3)Gal(b1-3)]GalNAc
In short: as §1

[7] = target: GlcNAc(b1-3)Gal(b1-4)GlcNAc(b1-6)[GlcNAc(b1-3)]Gal(b1-4)GlcNAc
In short: as §1

GlcNAc(b1-3)GalNAc = target: GlcNAc(b1-3)GalNAc
In short: as §1

GlcNAc(b1-3)Man = target: GlcNAc(b1-3)Man
In short: as §1

[8] = target: GlcNAc(b1-3)[GlcNAc(b1-4)][GlcNAc(b1-6)]GlcNAc
In short: as §1

[9] = target: GlcNAc(b1-3)[GlcNAc(b1-6)]Gal(b1-4)GlcNAc
In short: as §1

[10] = target: GlcNAc(b1-3)[GlcNAc(b1-6)]GalNAc
In short: as §1

[11] = target: GlcNAc(b1-4)Gal(b1-4)GlcNAc
In short: as §1

GlcNAc(b1-4)GlcNAc = target: GlcNAc(b1-4)GlcNAc
In short: as §1

[12] = target: GlcNAc(b1-4)GlcNAc(b1-4)GlcNAc
In short: as §1

[13] = target: GlcNAc(b1-4)GlcNAc(b1-4)GlcNAc(b1-4)GlcNAc(b1-4)GlcNAc
In short: as §1

[14] = target: GlcNAc(b1-4)GlcNAc(b1-4)GlcNAc(b1-4)GlcNAc(b1-4)GlcNAc(b1-4)GlcNAc
In short: as §1

[15] = target: GlcNAc(b1-4)[GlcNAc(b1-6)]GalNAc
In short: as §1

[16] = target: GlcNAc(b1-6)Gal(b1-4)GlcNAc
In short: as §1

GlcNAc(b1-6)GalNAc = target: GlcNAc(b1-6)GalNAc
In short: as §1

[17] = target: GlcNAc6S(b1-3)Gal(b1-4)GlcNAc
In short: as §1

Kdn(a2-3)Gal(b1-3)GalNAc = target: Kdn(a2-3)Gal(b1-3)GalNAc
In short: as §1

Kdn(a2-3)Gal(b1-3)GlcNAc = target: Kdn(a2-3)Gal(b1-3)GlcNAc
In short: as §1

Kdn(a2-3)Gal(b1-4)Glc = target: Kdn(a2-3)Gal(b1-4)Glc
In short: as §1

Kdn(a2-3)Gal(b1-4)GlcNAc = target: Kdn(a2-3)Gal(b1-4)GlcNAc
In short: as §1

[18] = target: Kdn(a2-3)Gal(b1-4)[Fuc(a1-3)]GlcNAc
In short: as §1

Kdn(a2-6)Gal(b1-4)GlcNAc = target: Kdn(a2-6)Gal(b1-4)GlcNAc
In short: as §1

[19] = target: Man(a1-2)Man(a1-2)Man(a1-3)Man
In short: as §1

[20] = target: Man(a1-2)Man(a1-2)Man(a1-6)[Man(a1-3)]Man
In short: as §1

Man(a1-2)Man(a1-3)Man = target: Man(a1-2)Man(a1-3)Man
In short: as §1

[21] = target: Man(a1-2)Man(a1-3)[Man(a1-2)Man(a1-6)]Man
In short: as §1

[22] = target: Man(a1-2)Man(a1-3)[Man(a1-2)Man(a1-6)]Man(a1-6)[Man(a1-2)Man(a1-2)Man(a1-3)]Man
In short: as §1

[23] = target: Man(a1-2)Man(a1-3)[Man(a1-2)Man(a1-6)]Man(a1-6)[Man(a1-2)Man(a1-2)Man(a1-3)]Man(b1-4)GlcNAc(b1-4)GlcNAc
In short: as §1

[24] = target: Man(a1-2)Man(a1-3)[Man(a1-6)]Man(a1-6)[Man(a1-2)Man(a1-3)]Man(b1-4)GlcNAc(b1-4)GlcNAc
In short: as §1

[25] = target: Man(a1-2)Man(a1-6)[Man(a1-3)]Man(a1-6)[Man(a1-2)Man(a1-2)Man(a1-3)]Man
In short: as §1

[26] = target: Man(a1-2)Man(a1-6)[Man(a1-3)]Man(a1-6)[Man(a1-2)Man(a1-2)Man(a1-3)]Man(b1-4)GlcNAc(b1-4)GlcNAc
In short: as §1

Man(a1-3)[Man(a1-6)]Man = target: Man(a1-3)[Man(a1-6)]Man
In short: as §1

[27] = target: Man(a1-3)[Man(a1-6)]Man(a1-6)[Man(a1-2)Man(a1-3)]Man(b1-4)GlcNAc(b1-4)GlcNAc
In short: as §1

[28] = target: Man(a1-3)[Man(a1-6)]Man(a1-6)[Man(a1-3)]Man
In short: as §1

[29] = target: Man(a1-3)[Man(a1-6)]Man(a1-6)[Man(a1-3)]Man(b1-4)GlcNAc(b1-4)GlcNAc
In short: as §1

[30] = target: Man(a1-3)[Man(a1-6)]Man(b1-4)GlcNAc(b1-4)GlcNAc
In short: as §1

[31] = target: Man(a1-3)[Man(a1-6)]Man(b1-4)GlcNAc(b1-4)[Fuc(a1-6)]GlcNAc
In short: as §1

Man(a1-6)Man = target: Man(a1-6)Man
In short: as §1

Man(b1-4)GlcNAc = target: Man(b1-4)GlcNAc
In short: as §1

MurNAc(b1-4)GlcNAc = target: MurNAc(b1-4)GlcNAc
In short: as §1

B1: DC-ASGPR-short (Homo sapiens) (protein)
chain: MTRTYENFQYLENKVKVQGFKNGPLPLQSLLQRLRSGPCHLLLSLGLGLLLLVIICVVGFQNSKFQRDLVTLRTDFSNFTSNTVAEIQALTSQGSSLEETIASLKAEVEGFKQERQAVHSEMLLRVQQLVQDLKKLTCQVATLNNNASTEGTCCPVNWVEHQDSCYWFSHSGMSWAEAEKYCQLKNAHLVVINSREEQNFVQKYLGSAYTWMGLSDPEGAWKWVDGTDYATGFQNWKPGQPDDWQGHGLGGGEDCAHFHPDGRWNDDVCQRPYHWVCEAGLGQTSQESH
[1]
  glycan array binding signal (z-score): -0.219
[2]
  glycan array binding signal (z-score): -0.276
[3]
  glycan array binding signal (z-score): -0.393
[4]
  glycan array binding signal (z-score): -0.295
[5]
  glycan array binding signal (z-score): -0.236
[6]
  glycan array binding signal (z-score): -0.232
[7]
  glycan array binding signal (z-score): -0.282
GlcNAc(b1-3)GalNAc
  glycan array binding signal (z-score): -0.272
GlcNAc(b1-3)Man
  glycan array binding signal (z-score): -0.267
[8]
  glycan array binding signal (z-score): -0.27
[9]
  glycan array binding signal (z-score): -0.266
[10]
  glycan array binding signal (z-score): -0.234
[11]
  glycan array binding signal (z-score): -0.264
GlcNAc(b1-4)GlcNAc
  glycan array binding signal (z-score): -0.283
[12]
  glycan array binding signal (z-score): -0.28
[13]
  glycan array binding signal (z-score): -0.269
[14]
  glycan array binding signal (z-score): -0.251
[15]
  glycan array binding signal (z-score): -0.277
[16]
  glycan array binding signal (z-score): -0.261
GlcNAc(b1-6)GalNAc
  glycan array binding signal (z-score): 4.64
[17]
  glycan array binding signal (z-score): -0.27
Kdn(a2-3)Gal(b1-3)GalNAc
  glycan array binding signal (z-score): -0.244
Kdn(a2-3)Gal(b1-3)GlcNAc
  glycan array binding signal (z-score): -0.255
Kdn(a2-3)Gal(b1-4)Glc
  glycan array binding signal (z-score): -0.182
Kdn(a2-3)Gal(b1-4)GlcNAc
  glycan array binding signal (z-score): -0.272
[18]
  glycan array binding signal (z-score): -0.278
Kdn(a2-6)Gal(b1-4)GlcNAc
  glycan array binding signal (z-score): -0.173
[19]
  glycan array binding signal (z-score): -0.287
[20]
  glycan array binding signal (z-score): -0.27
Man(a1-2)Man(a1-3)Man
  glycan array binding signal (z-score): -0.283
[21]
  glycan array binding signal (z-score): -0.283
[22]
  glycan array binding signal (z-score): -0.286
[23]
  glycan array binding signal (z-score): -0.277
[24]
  glycan array binding signal (z-score): -0.286
[25]
  glycan array binding signal (z-score): -0.287
[26]
  glycan array binding signal (z-score): -0.271
Man(a1-3)[Man(a1-6)]Man
  glycan array binding signal (z-score): -0.273
[27]
  glycan array binding signal (z-score): -0.215
[28]
  glycan array binding signal (z-score): -0.286
[29]
  glycan array binding signal (z-score): -0.271
[30]
  glycan array binding signal (z-score): -0.307
[31]
  glycan array binding signal (z-score): -0.269
Man(a1-6)Man
  glycan array binding signal (z-score): -0.273
Man(b1-4)GlcNAc
  glycan array binding signal (z-score): -0.27
MurNAc(b1-4)GlcNAc
  glycan array binding signal (z-score): -0.291
